Test results from the supplement of paper PMC12217912.
The list shows a part of the results. Sequences were assembled here from the parent chain. Values near 0.05 are background.

B1: TEV protease; numbered along this chain (parent)
chain: MGESLFKGPRDYNPISSSICHLTNESDGHTTSLYGIGFGPFIITNKHLFRRNNGTLVVQSLHGVFKVKDTTTLQQHLVDGRDMIIIRMPKDFPPFPQKLKFREPQREERICLVTTNFQTKSMSSMVSDTSCTFPSGDGIFWKHWIQTKDGQCGSPLVSTRDGFIVGIHSASNFTNTNNYFTSVPKNFMELLTNQEAQQWVSGWRLNADSVLWGGHKVFMVKPEEPFQPVKEATQL

Variants of: B1
Assay: raw area under fraction-flipped curve 0-4 h after induction (AUC4h, not background-subtracted), DNA-recorder readout of cleavage of the substrate (dimensionless); higher = more cleavage of the substrate by the protease variant
Details: temperature: 34 °C; time window: 0-4 h after rhamnose induction
Experimental: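 In vivo DNA recorder in E. coli TOP10(DE3) ΔrhaA at 34 °C. Each TEVp single-site mutant (parent TEVp 0) is paired with a single-site variant of the 7-mer TEVs (canonical ENLYFQ|S). The substrate sits between flexible linkers in a Bxb1-sfGFP-TEVs-SsrA fusion, so cleavage stabilises Bxb1 and speeds flipping of a recombination array, read by NGS. The value is the raw area under the fraction-flipped curve over 0-4 h after rhamnose induction (AUC4h), with ≥20 reads per time point. It is not background-subtracted; inactive controls average about 0.047.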
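Note: Bxb1 expression induced with 0.2% (w/v) L-rhamnose at OD600 near 0.5, cultures sampled hourly, flipped fraction per protease–substrate barcode pair counted by paired-end Illumina sequencing.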

MGESLFKGPRDYNPISSSICHLTNESDGHTTSLYGIGQGPFIITNKHLFRRNNGTLVVQSLHGVFKVKDTTTLQQHLVDGRDMIIIRMPKDFPPFPQKLKFREPQREERICLVTTNFQTKSMSSMVSDTSCTFPSGDGIFWKHWIQTKDGQCGSPLVSTRDGFIVGIHSASNFTNTNNYFTSVPKNFMELLTNQEAQQWVSGWRLNADSVLWGGHKVFMVKPEEPFQPVKEATQL [F38Q]
area with substrate ENLYFQA: 0.0807 | area with substrate ENLYFQC: 0.108 | area with substrate ENLYFQD: 0.0659 | area with substrate ENLYFQF: 0.0695 | area with substrate ENLYFQG: 0.166 | area with substrate ENLYFQH: 0.068 | area with substrate ENLYFQI: 0.0546 | area with substrate ENLYFQK: 0.0563 | area with substrate ENLYFQL: 0.0518 | area with substrate ENLYFQM: 0.0772 | area with substrate ENLYFQN: 0.08 | area with substrate ENLYFQP: 0.0679 | area with substrate ENLYFQR: 0.0544 | area with substrate ENLYFQS: 0.0945 | area with substrate ENLYFQT: 0.0616 | area with substrate ENLYFQV: 0.0638 | area with substrate ENLYFQW: 0.0625 | area with substrate ENLYFQY: 0.0656

MGESLFKGPRDYNPISSSICHLTNESDGHTTSLYGIGFGPFIITNKHLFRRNNGTLVVQSLHGVFKVKDTTTLQQHLVDGRDMIIIRMPKDFPPFPQKLKFREPQREERICLVTTNCQTKSMSSMVSDTSCTFPSGDGIFWKHWIQTKDGQCGSPLVSTRDGFIVGIHSASNFTNTNNYFTSVPKNFMELLTNQEAQQWVSGWRLNADSVLWGGHKVFMVKPEEPFQPVKEATQL [F117C]
area with substrate ENLYFQA: 0.0999 | area with substrate ENLYFQC: 0.131 | area with substrate ENLYFQG: 0.087 | area with substrate ENLYFQI: 0.0513 | area with substrate ENLYFQK: 0.0759 | area with substrate ENLYFQL: 0.0534 | area with substrate ENLYFQM: 0.0574 | area with substrate ENLYFQN: 0.074 | area with substrate ENLYFQP: 0.044 | area with substrate ENLYFQR: 0.0602 | area with substrate ENLYFQS: 0.103 | area with substrate ENLYFQT: 0.0673 | area with substrate ENLYFQW: 0.0694 | area with substrate ENLYFQY: 0.0628

MGESLFKGPRDYNPISSSICHLTNESDGHTTSLYGIGFGPFIITNKHLFRRNNGTLVVQSLHGVFKVKDTTTDQQHLVDGRDMIIIRMPKDFPPFPQKLKFREPQREERICLVTTNFQTKSMSSMVSDTSCTFPSGDGIFWKHWIQTKDGQCGSPLVSTRDGFIVGIHSASNFTNTNNYFTSVPKNFMELLTNQEAQQWVSGWRLNADSVLWGGHKVFMVKPEEPFQPVKEATQL [L73D]
area with substrate ENLYFQA: 0.0537 | area with substrate ENLYFQC: 0.0525 | area with substrate ENLYFQF: 0.0384 | area with substrate ENLYFQG: 0.0455 | area with substrate ENLYFQH: 0.05 | area with substrate ENLYFQI: 0.0268 | area with substrate ENLYFQK: 0.0648 | area with substrate ENLYFQL: 0.051 | area with substrate ENLYFQM: 0.0412 | area with substrate ENLYFQN: 0.0386 | area with substrate ENLYFQR: 0.046 | area with substrate ENLYFQS: 0.0542 | area with substrate ENLYFQW: 0.0641 | area with substrate ENLYFQY: 0.0492

MGESLFKGPRDYNPISSSICHLTNESDGHTTSLYGIGFGPFIITNKHLFRRNNGTLVVQSLHGVFKVKDTTTLQQHLVDGRDMIIIRMPKDFPPFPQKLKFREPQREERICLVTTNFQTKSMSSMVSDTSCTFPSGDGIFWKHWIQTKDGQCGSPLVSTRDGFIVGIHSASNFTNTNNYFTSVPKNFMELLTNQEAQQWVSGWSLNADSVLWGGHKVFMVKPEEPFQPVKEATQL [R204S]
area with substrate ENLYFQA: 0.174 | area with substrate ENLYFQC: 0.106 | area with substrate ENLYFQD: 0.0881 | area with substrate ENLYFQF: 0.088 | area with substrate ENLYFQG: 0.124 | area with substrate ENLYFQI: 0.0588 | area with substrate ENLYFQK: 0.0694 | area with substrate ENLYFQL: 0.0547 | area with substrate ENLYFQM: 0.0687 | area with substrate ENLYFQN: 0.1 | area with substrate ENLYFQP: 0.0549 | area with substrate ENLYFQQ: 0.136 | area with substrate ENLYFQR: 0.0723 | area with substrate ENLYFQS: 0.109 | area with substrate ENLYFQT: 0.0679 | area with substrate ENLYFQY: 0.0964

MGESLFKGPRDYNPISSSICHLTNESDGHTTSLYGIGFGPFIITNKHLFRRNNGTLVVQSLHGVFKVKDTTTLQQHLVDGRDMIIIRMPKDFPPFPQKLKFREPQREERICLVTTNFQTKSMSSMVSDTSCTFPSGDGIFWKHWIQTKDGQCGSPLVSTRDGFIVGIHSHSNFTNTNNYFTSVPKNFMELLTNQEAQQWVSGWRLNADSVLWGGHKVFMVKPEEPFQPVKEATQL [A170H]
area with substrate ENLYFQA: 0.0541 | area with substrate ENLYFQC: 0.0586 | area with substrate ENLYFQI: 0.0537 | area with substrate ENLYFQL: 0.0391 | area with substrate ENLYFQM: 0.0666 | area with substrate ENLYFQN: 0.0817 | area with substrate ENLYFQR: 0.0673 | area with substrate ENLYFQS: 0.0595 | area with substrate ENLYFQT: 0.061

MGESLFKGPRDYNPISSSICHLTNESDGHTTSLYGIGFGPFIITNKHLFRRNNGTLVVQSLHGVFKVKDTTTLQQHLVDGRDMIIIRMPKDFPPFPQKLKFREPQREERICLVTTNFQTKSMSSMVSDTSCTFPSGDGIFWKHWIQTKDGQCGSPLVSTRDGFIVGIHSASNNTNTNNYFTSVPKNFMELLTNQEAQQWVSGWRLNADSVLWGGHKVFMVKPEEPFQPVKEATQL [F173N]
area with substrate ENLYFQA: 0.093 | area with substrate ENLYFQD: 0.0431 | area with substrate ENLYFQG: 0.0959 | area with substrate ENLYFQK: 0.0623 | area with substrate ENLYFQL: 0.0623 | area with substrate ENLYFQM: 0.0612 | area with substrate ENLYFQP: 0.0511 | area with substrate ENLYFQR: 0.0586 | area with substrate ENLYFQS: 0.0853 | area with substrate ENLYFQT: 0.0654 | area with substrate ENLYFQV: 0.0549

MGESLFKGPRDYNPISSSICHLTNESDGHTTSLYGIGFGPFIITNKHLFRRNNGTLVVQSLHGVFKVKDTTTLQQHLVDGRDMIIIRMPKDFPPIPQKLKFREPQREERICLVTTNFQTKSMSSMVSDTSCTFPSGDGIFWKHWIQTKDGQCGSPLVSTRDGFIVGIHSASNFTNTNNYFTSVPKNFMELLTNQEAQQWVSGWRLNADSVLWGGHKVFMVKPEEPFQPVKEATQL [F95I]
area with substrate ENLYFQA: 0.0911 | area with substrate ENLYFQC: 0.0891 | area with substrate ENLYFQD: 0.0755 | area with substrate ENLYFQG: 0.0862 | area with substrate ENLYFQH: 0.0669 | area with substrate ENLYFQI: 0.0478 | area with substrate ENLYFQL: 0.0464 | area with substrate ENLYFQM: 0.0721 | area with substrate ENLYFQN: 0.0644 | area with substrate ENLYFQP: 0.0747 | area with substrate ENLYFQR: 0.0732 | area with substrate ENLYFQS: 0.0823 | area with substrate ENLYFQT: 0.0749 | area with substrate ENLYFQW: 0.0759

MGESLFKGPRDYNPISSSICHLTNESDGHTTSLYGIGFGPFIITNKHLFRRNNGTLVVQSLHGVFKVKDTTTLQQHLVDGRDMIIIRMPKDFPPFPQKLKFREPQREERICLVTTNFQTKSMSSMVSDTSCTFPSGDGIFWKHWIQTKDGQCGSPLVSTRDGFIVGIHSASNFTNTNNYFTSVPKNFMELLTNQEAQQWVSGWRLNADSVLWGGHKVFMVKPEEPFQPVKEALQL [T233L]
area with substrate ENLYFQA: 0.102 | area with substrate ENLYFQC: 0.086 | area with substrate ENLYFQD: 0.0591 | area with substrate ENLYFQF: 0.0417 | area with substrate ENLYFQI: 0.055 | area with substrate ENLYFQK: 0.0712 | area with substrate ENLYFQL: 0.0627 | area with substrate ENLYFQM: 0.0659 | area with substrate ENLYFQN: 0.0791 | area with substrate ENLYFQP: 0.0767 | area with substrate ENLYFQS: 0.0908 | area with substrate ENLYFQT: 0.0609 | area with substrate ENLYFQW: 0.064 | area with substrate ENLYFQY: 0.0685

MGESLFKGPRDYNPISSSICHLTNESDGHTTSLYGIGFGPFIITNKHLFRRNNGTLVVQSLHGVFKVKDTTTLQQHLVDGRDMIIIRMPKDFPPFPQKLKFREPQREERICLVTTNFQTKSMSSMVSDTSCTFPSGDGIFWKHWIQTKDGQCGSPLVSTRDGFIVGIHSASNFTNTNNYFTSVPKNFMELLTNQESQQWVSGWRLNADSVLWGGHKVFMVKPEEPFQPVKEATQL [A196S]
area with substrate ENLYFQA: 0.0778 | area with substrate ENLYFQD: 0.0648 | area with substrate ENLYFQG: 0.101 | area with substrate ENLYFQH: 0.0779 | area with substrate ENLYFQI: 0.0629 | area with substrate ENLYFQL: 0.0636 | area with substrate ENLYFQN: 0.0823 | area with substrate ENLYFQP: 0.0517 | area with substrate ENLYFQR: 0.0683 | area with substrate ENLYFQS: 0.0908 | area with substrate ENLYFQT: 0.0736 | area with substrate ENLYFQV: 0.0613 | area with substrate ENLYFQW: 0.0566
